The supplement of paper PMC8728848
This is one part of the list.

Assays:
Assay in all cases: glycan array binding signal (z-score within array); higher = stronger binding
Conditions in all cases: glycan notation: IUPAC condensed, linker removed
[1] = target: Gal(b1-4)GlcNAc(b1-3)Gal(b1-4)GlcNAc(b1-3)Gal(b1-4)GlcNAc(b1-2)Man(a1-3)[Gal(b1-4)GlcNAc(b1-3)Gal(b1-4)GlcNAc(b1-3)Gal(b1-4)GlcNAc(b1-2)Man(a1-6)]Man(b1-4)GlcNAc(b1-4)GlcNAc
Summary of the method: (§1)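 Columns mapping to the same glycan were averaged after glycan names were converted to IUPAC-condensed notation. The data come from 3228 arrays in the Consortium for Functional Glycomics database, limited to those with an available protein sequence. Binding is reported as a within-array Z-score averaged across arrays of one protein sequence and across linkers.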

[2] = target: Gal(b1-4)GlcNAc(b1-3)Gal(b1-4)GlcNAc(b1-3)Gal(b1-4)GlcNAc(b1-2)Man(a1-3)[Gal(b1-4)GlcNAc(b1-3)Gal(b1-4)GlcNAc(b1-3)Gal(b1-4)GlcNAc(b1-2)Man(a1-6)]Man(b1-4)GlcNAc(b1-4)[Fuc(a1-6)]GlcNAc
Summary of the method: as §1

[3] = target: Gal(b1-4)GlcNAc(b1-3)Gal(b1-4)GlcNAc(b1-3)Gal(b1-4)GlcNAc(b1-2)[Gal(b1-4)GlcNAc(b1-3)Gal(b1-4)GlcNAc(b1-3)Gal(b1-4)GlcNAc(b1-6)]Man(a1-6)[Gal(b1-4)GlcNAc(b1-3)Gal(b1-4)GlcNAc(b1-3)Gal(b1-4)GlcNAc(b1-2)Man(a1-3)]Man(b1-4)GlcNAc(b1-4)[Fuc(a1-6)]GlcNAc
Summary of the method: as §1

[4] = target: Gal(b1-4)GlcNAc(b1-3)Gal(b1-4)GlcNAc(b1-3)Gal(b1-4)GlcNAc(b1-3)Gal(b1-4)GlcNAc(b1-2)Man(a1-3)[Gal(b1-4)GlcNAc(b1-3)Gal(b1-4)GlcNAc(b1-3)Gal(b1-4)GlcNAc(b1-3)Gal(b1-4)GlcNAc(b1-2)Man(a1-6)]Man(b1-4)GlcNAc(b1-4)GlcNAc
Summary of the method: as §1

[5] = target: Gal(b1-4)GlcNAc(b1-3)Gal(b1-4)GlcNAc(b1-3)Gal(b1-4)GlcNAc(b1-3)Gal(b1-4)GlcNAc(b1-2)Man(a1-3)[Gal(b1-4)GlcNAc(b1-3)Gal(b1-4)GlcNAc(b1-3)Gal(b1-4)GlcNAc(b1-3)Gal(b1-4)GlcNAc(b1-2)Man(a1-6)]Man(b1-4)GlcNAc(b1-4)[Fuc(a1-6)]GlcNAc
Summary of the method: as §1

[6] = target: Gal(b1-4)GlcNAc(b1-3)Gal(b1-4)GlcNAc(b1-3)Gal(b1-4)GlcNAc(b1-3)Gal(b1-4)GlcNAc(b1-2)[Gal(b1-4)GlcNAc(b1-3)Gal(b1-4)GlcNAc(b1-3)Gal(b1-4)GlcNAc(b1-3)Gal(b1-4)GlcNAc(b1-6)]Man(a1-6)[Gal(b1-4)GlcNAc(b1-3)Gal(b1-4)GlcNAc(b1-3)Gal(b1-4)GlcNAc(b1-3)Gal(b1-4)GlcNAc(b1-2)Man(a1-3)]Man(b1-4)GlcNAc(b1-4)[Fuc(a1-6)]GlcNAc
Summary of the method: as §1

[7] = target: Gal(b1-4)GlcNAc(b1-3)Gal(b1-4)GlcNAc(b1-3)Gal(b1-4)GlcNAc(b1-3)Gal(b1-4)GlcNAc(b1-3)Gal(b1-4)GlcNAc(b1-2)Man(a1-3)[Gal(b1-4)GlcNAc(b1-3)Gal(b1-4)GlcNAc(b1-3)Gal(b1-4)GlcNAc(b1-3)Gal(b1-4)GlcNAc(b1-3)Gal(b1-4)GlcNAc(b1-2)Man(a1-6)]Man(b1-4)GlcNAc(b1-4)GlcNAc
Summary of the method: as §1

[8] = target: Gal(b1-4)GlcNAc(b1-3)Gal(b1-4)GlcNAc(b1-3)Gal(b1-4)GlcNAc(b1-3)Gal(b1-4)GlcNAc(b1-3)Gal(b1-4)GlcNAc(b1-2)Man(a1-3)[Gal(b1-4)GlcNAc(b1-3)Gal(b1-4)GlcNAc(b1-3)Gal(b1-4)GlcNAc(b1-3)Gal(b1-4)GlcNAc(b1-3)Gal(b1-4)GlcNAc(b1-2)Man(a1-6)]Man(b1-4)GlcNAc(b1-4)[Fuc(a1-6)]GlcNAc
Summary of the method: as §1

[9] = target: Gal(b1-4)GlcNAc(b1-3)Gal(b1-4)GlcNAc(b1-3)Gal(b1-4)GlcNAc(b1-3)Gal(b1-4)GlcNAc(b1-3)Gal(b1-4)GlcNAc(b1-2)[Gal(b1-4)GlcNAc(b1-3)Gal(b1-4)GlcNAc(b1-3)Gal(b1-4)GlcNAc(b1-3)Gal(b1-4)GlcNAc(b1-3)Gal(b1-4)GlcNAc(b1-6)]Man(a1-6)[Gal(b1-4)GlcNAc(b1-3)Gal(b1-4)GlcNAc(b1-3)Gal(b1-4)GlcNAc(b1-3)Gal(b1-4)GlcNAc(b1-3)Gal(b1-4)GlcNAc(b1-2)Man(a1-3)]Man(b1-4)GlcNAc(b1-4)[Fuc(a1-6)]GlcNAc
Summary of the method: as §1

[10] = target: Gal(b1-4)GlcNAc(b1-3)Gal(b1-4)GlcNAc(b1-3)Gal(b1-4)GlcNAc(b1-3)Gal(b1-4)GlcNAc(b1-3)Gal(b1-4)GlcNAc(b1-3)Gal(b1-4)GlcNAc(b1-2)Man(a1-3)[Gal(b1-4)GlcNAc(b1-3)Gal(b1-4)GlcNAc(b1-3)Gal(b1-4)GlcNAc(b1-3)Gal(b1-4)GlcNAc(b1-3)Gal(b1-4)GlcNAc(b1-3)Gal(b1-4)GlcNAc(b1-2)Man(a1-6)]Man(b1-4)GlcNAc(b1-4)GlcNAc
Summary of the method: as §1

[11] = target: Gal(b1-4)GlcNAc(b1-3)Gal(b1-4)GlcNAc(b1-3)GalNAc
Summary of the method: as §1

[12] = target: Gal(b1-4)GlcNAc(b1-3)Gal(b1-4)GlcNAc(b1-3)[Gal(b1-4)GlcNAc(b1-3)Gal(b1-4)GlcNAc(b1-6)]GalNAc
Summary of the method: as §1

[13] = target: Gal(b1-4)GlcNAc(b1-3)Gal(b1-4)GlcNAc(b1-6)[Gal(b1-3)]GalNAc
Summary of the method: as §1

[14] = target: Gal(b1-4)GlcNAc(b1-3)Gal(b1-4)[Fuc(a1-3)]GlcNAc(b1-3)Gal(b1-4)[Fuc(a1-3)]GlcNAc
Summary of the method: as §1

[15] = target: Gal(b1-4)GlcNAc(b1-3)GalNAc
Summary of the method: as §1

[16] = target: Gal(b1-4)GlcNAc(b1-3)[Fuc(a1-3)GlcNAc(b1-6)]Gal(b1-4)Glc
Summary of the method: as §1

[17] = target: Gal(b1-4)GlcNAc(b1-3)[Gal(b1-4)GlcNAc(b1-6)]Gal(b1-4)GlcNAc
Summary of the method: as §1

[18] = target: Gal(b1-4)GlcNAc(b1-3)[Gal(b1-4)GlcNAc(b1-6)]GalNAc
Summary of the method: as §1

[19] = target: Gal(b1-4)GlcNAc(b1-3)[GlcNAc(b1-6)]Gal(b1-4)GlcNAc
Summary of the method: as §1

B1: XL-35 (Xenopus laevis) (protein)
chain: MLVHILLLLVTGGLSQSCDPVVIVASKNMVKQLDCDKFRNCKEIKDSNEEAQDGIYTLTSPDGISYQTFCDMTTNGGGWTLVASVHENNMAGKCTIGDRWSSQQGNRADYPEGDGNWANYNTFGSAGGATSDDYKNPGYYDIEAYNLGVWHVPNKTPLSVWRNSSLQRYRTTDGILFKHGGNLFSLYRIYPVKYGIGSCSKDSGPTVPVVYDLGSANLTASFYSPGFRSQFTPGYIQFRPINTEKAALALCPGMKMESCNVEHVCIGGGGYFPEADPRQCGDFAAYDFNGYGTKKFNSAGIEITEAAVLLFYL
glycan array binding signal (z-score) [1]: 0.052
glycan array binding signal (z-score) [2]: 0.113
glycan array binding signal (z-score) [3]: -0.056
glycan array binding signal (z-score) [4]: 0.163
glycan array binding signal (z-score) [5]: 0.331
glycan array binding signal (z-score) [6]: -0.13
glycan array binding signal (z-score) [7]: -0.412
glycan array binding signal (z-score) [8]: 0.144
glycan array binding signal (z-score) [9]: 0.478
glycan array binding signal (z-score) [10]: 0.297
glycan array binding signal (z-score) [11]: -0.165
glycan array binding signal (z-score) [12]: -0.094
glycan array binding signal (z-score) [13]: -0.02
glycan array binding signal (z-score) [14]: -0.254
glycan array binding signal (z-score) [15]: -0.345
glycan array binding signal (z-score) [16]: -0.26
glycan array binding signal (z-score) [17]: -0.081
glycan array binding signal (z-score) [18]: -0.099
glycan array binding signal (z-score) [19]: -0.228
